Screen size: about 310,000 compounds; about 14,000 (4.5%) showed an effect of 50% or more. The effect is printed as a negative number. Some of the results follow.
target: human ether-à-go-go-related gene (hERG) potassium channel (human, UniProt Q12809); assay: primary screen, population patch clamp on CHO cells stably expressing hERG
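Further: peak tail current of the secondary pulse compared with the same well before compound.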

human ether-à-go-go-related gene (hERG) potassium channel, sequence (Q12809 whole entry, looked up): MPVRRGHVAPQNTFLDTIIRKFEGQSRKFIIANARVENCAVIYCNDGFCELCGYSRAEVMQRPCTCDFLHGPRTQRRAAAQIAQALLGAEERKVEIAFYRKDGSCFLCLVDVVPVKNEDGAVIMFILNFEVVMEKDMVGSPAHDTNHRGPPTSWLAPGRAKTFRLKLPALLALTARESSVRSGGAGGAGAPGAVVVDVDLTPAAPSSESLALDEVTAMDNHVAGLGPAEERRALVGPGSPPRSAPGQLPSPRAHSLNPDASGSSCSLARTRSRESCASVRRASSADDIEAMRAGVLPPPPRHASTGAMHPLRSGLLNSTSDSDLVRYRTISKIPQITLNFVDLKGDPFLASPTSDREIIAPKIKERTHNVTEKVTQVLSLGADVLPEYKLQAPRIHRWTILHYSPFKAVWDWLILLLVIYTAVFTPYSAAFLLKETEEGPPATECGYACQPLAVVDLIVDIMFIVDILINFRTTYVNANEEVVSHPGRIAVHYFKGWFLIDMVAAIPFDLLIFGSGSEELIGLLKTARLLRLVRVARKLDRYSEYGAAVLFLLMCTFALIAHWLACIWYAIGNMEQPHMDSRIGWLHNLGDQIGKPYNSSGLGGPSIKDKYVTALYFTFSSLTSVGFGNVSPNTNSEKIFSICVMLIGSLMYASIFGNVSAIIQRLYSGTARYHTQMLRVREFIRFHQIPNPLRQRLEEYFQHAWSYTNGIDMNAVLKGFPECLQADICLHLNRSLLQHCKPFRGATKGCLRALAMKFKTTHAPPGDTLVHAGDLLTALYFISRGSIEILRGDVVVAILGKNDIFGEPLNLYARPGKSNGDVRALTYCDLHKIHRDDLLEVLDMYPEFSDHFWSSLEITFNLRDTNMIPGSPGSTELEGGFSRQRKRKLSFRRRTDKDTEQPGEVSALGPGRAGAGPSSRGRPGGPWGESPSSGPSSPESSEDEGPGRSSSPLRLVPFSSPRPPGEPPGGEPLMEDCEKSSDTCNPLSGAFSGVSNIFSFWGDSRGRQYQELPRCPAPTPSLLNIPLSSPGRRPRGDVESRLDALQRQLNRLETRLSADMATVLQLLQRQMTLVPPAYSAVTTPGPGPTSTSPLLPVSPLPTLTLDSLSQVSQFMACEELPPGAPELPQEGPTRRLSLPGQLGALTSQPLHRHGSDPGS

| Structure (SMILES) | hERG current change (%, negative = inhibition) at 10uM [%] |
| --- | --- |
| COCCN1C(=O)N(c2ccccc2)C(=O)C1CC(=O)Nc1cc(OC)cc(OC)c1 (stereo not drawn) | 14 |
| COCCn1c(C)cc(C(=O)COc2ccc(N(C)S(=O)(=O)c3ccc(C)cc3)cc2)c1C | -19.9 |
| COc1cccc(CNCCO)c1OCc1ccccc1Cl.Cl | -8.68 |
| CCOC(=O)N1CCC2(CC1)NCCc1c2[nH]c2ccccc12 | 1.56 |
| CC1(C)CC(=O)C2=C(C1)Nc1cc3c(cc1C2c1ccc(F)cc1)OCO3 (stereo not drawn) | -41.8 |
| Cc1c(C#N)c(NC(=O)CCl)n(Cc2cccs2)c1C | -11.4 |
| O=C(NCC(c1cccnc1)N1CCN(c2ccc(F)cc2)CC1)c1cccc(Cl)c1 (stereo not drawn) | -66.2 |
| Cn1c(=O)cc(SCC(=O)NCCC2=CCCCC2)c2ccccc21 | -11.3 |
| O=C1N(Cc2cccnc2)C[C@@H]2C[C@@H](c3ccccc3C(F)(F)F)N3CCC[C@@]123 | -11.2 |
| CC(=O)c1ccc(NC(=O)Cn2cnc(S(=O)(=O)N3CCc4ccccc43)c2)cc1 | 15.2 |
| COc1ccc(OC)c(NC(=O)CSc2nncc3ccccc23)c1 | 8.9 |
| Cc1ccc(NC(=S)NCc2ccc(Cl)cc2)c(C)c1 | 7.94 |
| Cc1c(NC(=O)CSCc2ccc(Br)cc2)c(=O)n(-c2ccccc2)n1C | 28.2 |
| CC(=O)Nc1ccc(S(=O)(=O)N(Cc2cc3ccc(C)cc3[nH]c2=O)CC2CCCO2)cc1 (stereo not drawn) | 9.91 |
| COc1ccc(CCNC(=O)C(C(=O)c2ccccc2)n2ccccc2=O)cc1OC (stereo not drawn) | -0.768 |
| O=C(c1ccc(S(=O)(=O)Nc2ccccc2)cc1)N1CCOCC1 | 7.64 |
| COC(=O)CCCC1=CC2=C(c3ccccc3)C(=O)C(C)(OC(=O)C3CCCC3)C(=O)C2=CN1c1ccc(OC)cc1 (stereo not drawn) | -32.5 |
| COc1ccc(C(C(=O)NC2CCCC2)N(C(=O)c2ccco2)c2ccccc2C(C)=O)cc1OC (stereo not drawn) | 2.99 |
| O=C1c2cccc3c([N+](=O)[O-])ccc(c23)C(=O)N1c1ccccn1 | 7.95 |
| Cc1c(C)c2cc(Cl)c(OCC(=O)NC3CC(C)(C)NC(C)(C)C3)cc2oc1=O | -6.44 |
| Cc1ccccc1C(=O)Nn1cnnc1 | 3.49 |

| Structure (SMILES) | hERG current change (%, negative = inhibition) at 10uM [%] |
| --- | --- |
| CCCC(C(=O)NC1CCCC1)N(Cc1ccc2c(c1)OCO2)C(=O)c1snc(C(N)=O)c1N (stereo not drawn) | 9.13 |
| Cc1ccc(NC2CCCN(C(=O)c3cccs3)C2)cc1C (stereo not drawn) | 0.412 |
| Cc1cc(C)c(NC(=O)C2CCCN2C(=O)NC2CCCCC2)c(C)c1 (stereo not drawn) | 4.84 |
| Cc1ccc2oc(=O)c(/C=C(\O)C(C)(C)C)nc2c1 | 17.1 |
| COC(=O)CCC(=O)c1oc2ccccc2c1NC(=O)CCCN1C(=O)c2ccccc2C1=O | -8.43 |
| CCCCNC(=O)c1cn(CC(C)C)c(=O)c2c1c1ccccc1n2C | 0.174 |
| Cc1ccc(S(=O)(=O)N2CCN(C)CC2)c(C)c1N(C)S(=O)(=O)c1ccc(Cl)cc1 | -68.7 |
| CCOC(=O)N1CCc2c(sc(NC(=O)C3COc4ccccc4O3)c2C(N)=O)C1 (stereo not drawn) | 11.4 |
| CC(C)(C)C1CCC(=NNC(=O)CN(c2ccccc2)S(C)(=O)=O)CC1 (stereo not drawn) | 6.6 |
| O=C(CN1CCC(C(=O)c2ccc3c(c2)OCCO3)CC1)Nc1ccccc1F | -0.724 |
| O=C(O)CC(NCc1ccco1)C(=O)Nc1cccc(O)c1 (stereo not drawn) | 14 |
| COC(=O)CN1C(=O)[C@H]2[C@@H](C3CC3)N3C(=O)CN(CCO)C(=O)[C@@]3(Cc3ccccc3)[C@H]2C1=O | 8.75 |
| N/C(=N\N=C\c1ccc(O)cc1)c1nonc1N | 10.2 |
| O=C(NCc1cccnc1)c1ccc(COc2ccccc2Br)cc1 | 12.6 |
| CC(C)(C)NC(=O)Cn1c(Cl)nc2ccccc21 | 27.9 |
| CCOC(=O)C1CCCN(Cc2nc(N)nc(Nc3ccc(C)cc3)n2)C1 (stereo not drawn) | -69.5 |
| Cc1ccc(CS(=O)(=O)Cc2ccc(C(=O)NCc3cccnc3)o2)cc1 | -17.4 |
| COc1ccc(-c2c3c(=O)n(C)c(=O)n(C)c3cn2-c2ccccc2)cc1 | 4.72 |
| O=C(Cn1nc(-c2ccc(Cl)cc2)ccc1=O)NCc1ccc2c(c1)OCO2 | -12.5 |
| O=C(CCN1C(=O)c2ccccc2C1=O)Nc1cccc(S(=O)(=O)N2CCCCC2)c1 | -20 |
| O=C(NCCO)c1ccc2[nH]c3ccccc3c2c1 | 9.18 |

| Structure (SMILES) | hERG current change (%, negative = inhibition) at 10uM [%] |
| --- | --- |
| CC(C)(C)n1nc2c(c1NC(=O)Cc1ccc([N+](=O)[O-])cc1)CS(=O)(=O)C2 | -12.6 |
| Cc1ccc(Nc2nc3ccccc3nc2Nc2c(C)n(C)n(-c3ccccc3)c2=O)cc1 | 10.4 |
| CN(C)CCCn1cnc2c(c1=N)C(c1ccccc1)c1ccc3ccccc3c1O2 (stereo not drawn) | -75.9 |
| CC1CCCN(C(=O)C2CCN(C(=O)Nc3ccccc3)CC2)C1 (stereo not drawn) | -7.96 |
| Cc1ccc(-n2nnnc2SCC(=O)Nc2c(C)n(C)n(-c3ccccc3)c2=O)cc1 | -4.6 |
| COc1ccc(C(=O)N2CCN(C)C(C)C2)cc1OC1CCN(C(C)=O)CC1 (stereo not drawn) | 16.6 |
| CCOc1cc(/C=C2/C(=N)N3N=C(C)SC3=NC2=O)ccc1OS(=O)(=O)c1ccc(C)cc1 | 0.16 |
| O=C(/C=C/c1ccco1)NCc1ccccn1 | 11.3 |
| FC(F)(F)c1ccc(NC2=NCCC2)cc1 | -4 |
| CC(=O)Nc1ccc(S(=O)(=O)NCCC(=O)Nc2ccc(C)c(Cl)c2)cc1 | -3.17 |
| Cc1ccc2cc(-c3noc(C(C)(C)C)n3)c(=O)[nH]c2c1 | -17 |
| O=C(CN1CCN(c2ccc(O)cc2)CC1)Nc1cc(S(=O)(=O)N2CCCCC2)ccc1Cl | -31.8 |
| O=S(=O)(NC1=NCCC1)c1ccc(F)cc1F | 17.3 |
| COCCNc1nnc(SCC(=O)N2CCN(S(=O)(=O)c3ccccc3)CC2)s1 | -2.94 |
| CC[N+]1(C)CCC(=C2c3ccccc3CC(=O)c3sccc32)CC1.[Br-] (stereo not drawn) | -0.0826 |
| Cc1cc(=O)[nH]c(N/N=C/c2c(C)oc3ccccc23)n1 | -0.943 |
| CCOc1ccc(NN=C(C(=O)OC)C(=O)OC)c([N+](=O)[O-])c1 | 11.2 |
| CCOS(=O)(=O)[O-].CC[n+]1c(/C=C/Nc2ccccc2)oc2ccc(OC)cc21 | -77.2 |
| CCn1c(SCC(=O)NC(=O)c2ccccc2OC)nc2ccccc21 | -70.8 |
| CCN(CC)CCOC(=O)c1ccc(Cl)cc1Cl.Cl | -55.4 |
| CC(OC(=O)C1=COCCO1)C(=O)Nc1cccc(S(=O)(=O)N2CCOCC2)c1 (stereo not drawn) | 18 |

| Structure (SMILES) | hERG current change (%, negative = inhibition) at 10uM [%] |
| --- | --- |
| O=C(c1cccc([N+](=O)[O-])c1)N1CCCC(C(=O)N2CCCCCC2)C1 (stereo not drawn) | -4.58 |
| C=CCOc1nc2c(c(=O)n(C)c(=O)n2C)n1Cc1ccc(Cl)cc1Cl | -2.7 |
| CCc1cc2cc(C)c(C)cc2nc1SCC(=O)NNC(=O)c1ccco1 | 21.5 |
| c1ccc2c(c1)nc(N1CCOCC1)c1c3ccccc3[nH]c21 | 5.47 |
| C/C(=N\NC(=O)c1cc(O)ccc1O)c1cccc(NC(=O)c2cccc(Cl)c2)c1 | 18.4 |
| NC(=O)c1ccc(-n2nnnc2SCC(=O)Nc2ccccc2)cc1 | 14.3 |
| CC(=O)C1=C(O)C(=O)N(c2ccc(O)cc2)C1c1ccccc1 (stereo not drawn) | 5.28 |
| O=C(O)c1cc(C2CC2)nc2ccccc12 | 10.1 |
| O=c1[nH]cccc1-c1nc2ccccc2n1Cc1ccc(Cl)cc1 | -23.8 |
| Oc1ccccc1CNc1ncc(Br)cc1Br | 8.67 |
| O=C(NC1CCCCC1)C1CCCN1S(=O)(=O)c1ccc(F)cc1 (stereo not drawn) | -0.938 |
| Cc1cc(C(=O)NC(C)c2ccccc2)c2cc(F)ccc2n1 (stereo not drawn) | 3.06 |
| COc1ccc([C@@H]2CC=C(C(=O)O)[C@H](c3ccc(F)cc3)N2S(=O)(=O)c2ccccc2C)cc1 | 17.7 |
| COc1ccc2ccccc2c1/C=N/NC(=O)c1nnn(-c2nonc2N)c1CN(C)C | -5.92 |
| O=C(CSc1ncn[nH]1)Nc1cccc2ccccc12 | 3.88 |
| COc1cc(/C=N/NC(=O)c2nc(C)cc(C)n2)ccc1O | 7.57 |
| CCOC(=O)c1[nH]c(C)c(CN(CCc2ccc(OC)c(OC)c2)C(=O)CCCC(=O)O)c1C | 4.19 |
| Cc1cnn(-c2ccc3nnc(-c4ccc(Br)cc4)n3n2)c1 | -3.17 |
| CCOC(=O)c1cc(-c2ccccc2)sc1NC(=O)CN1C(=O)NC(CC)(c2ccc(F)cc2)C1=O (stereo not drawn) | 8.98 |
| CN1CCN(C(=O)c2ccccc2-c2ccccc2C(=O)O)CC1 | 15.7 |
| CN1C(=O)N(C)c2ccc(C=O)c3cccc1c23 | 27 |

From article PMC4336329 (PLoS ONE, 2015)
